PubChem BioAssay AID504333 (National Center for Advancing Translational Sciences (NCATS), 2011)
“And” between values parts separate entries of the source, which are not always exact repeats. Equal entries are not always repeated. Hit rate of the full screen: of about 360,000 compounds, about 16,000 (4.4%) were called active. Inconclusive results, whose numbers are uncertain, are shown with a selection of clear calls. Calls come from the whole dose curve; as a rule, active = well fitted inhibition curve with a large enough effect; inconclusive = small, poorly fitted or top-dose-only effect; inactive = no such curve, though single readings can be large or run the other way. Where the call is inconclusive, the potency comes from a doubtful curve fit.

What follows are molecules tested against Bromodomain adjacent to zinc finger domain protein 2B (Homo sapiens) (UniProt Q9UIF8) (assay: qHTS Assay for Inhibitors of BAZ2B). Details: AlphaScreen BAZ2B-H3K14Ac peptide displacement; series mostly up to 114 µM.
Sequence of UniProt Q9UIF8 (Q9UIF8 whole entry, looked up, the tested form may be a part): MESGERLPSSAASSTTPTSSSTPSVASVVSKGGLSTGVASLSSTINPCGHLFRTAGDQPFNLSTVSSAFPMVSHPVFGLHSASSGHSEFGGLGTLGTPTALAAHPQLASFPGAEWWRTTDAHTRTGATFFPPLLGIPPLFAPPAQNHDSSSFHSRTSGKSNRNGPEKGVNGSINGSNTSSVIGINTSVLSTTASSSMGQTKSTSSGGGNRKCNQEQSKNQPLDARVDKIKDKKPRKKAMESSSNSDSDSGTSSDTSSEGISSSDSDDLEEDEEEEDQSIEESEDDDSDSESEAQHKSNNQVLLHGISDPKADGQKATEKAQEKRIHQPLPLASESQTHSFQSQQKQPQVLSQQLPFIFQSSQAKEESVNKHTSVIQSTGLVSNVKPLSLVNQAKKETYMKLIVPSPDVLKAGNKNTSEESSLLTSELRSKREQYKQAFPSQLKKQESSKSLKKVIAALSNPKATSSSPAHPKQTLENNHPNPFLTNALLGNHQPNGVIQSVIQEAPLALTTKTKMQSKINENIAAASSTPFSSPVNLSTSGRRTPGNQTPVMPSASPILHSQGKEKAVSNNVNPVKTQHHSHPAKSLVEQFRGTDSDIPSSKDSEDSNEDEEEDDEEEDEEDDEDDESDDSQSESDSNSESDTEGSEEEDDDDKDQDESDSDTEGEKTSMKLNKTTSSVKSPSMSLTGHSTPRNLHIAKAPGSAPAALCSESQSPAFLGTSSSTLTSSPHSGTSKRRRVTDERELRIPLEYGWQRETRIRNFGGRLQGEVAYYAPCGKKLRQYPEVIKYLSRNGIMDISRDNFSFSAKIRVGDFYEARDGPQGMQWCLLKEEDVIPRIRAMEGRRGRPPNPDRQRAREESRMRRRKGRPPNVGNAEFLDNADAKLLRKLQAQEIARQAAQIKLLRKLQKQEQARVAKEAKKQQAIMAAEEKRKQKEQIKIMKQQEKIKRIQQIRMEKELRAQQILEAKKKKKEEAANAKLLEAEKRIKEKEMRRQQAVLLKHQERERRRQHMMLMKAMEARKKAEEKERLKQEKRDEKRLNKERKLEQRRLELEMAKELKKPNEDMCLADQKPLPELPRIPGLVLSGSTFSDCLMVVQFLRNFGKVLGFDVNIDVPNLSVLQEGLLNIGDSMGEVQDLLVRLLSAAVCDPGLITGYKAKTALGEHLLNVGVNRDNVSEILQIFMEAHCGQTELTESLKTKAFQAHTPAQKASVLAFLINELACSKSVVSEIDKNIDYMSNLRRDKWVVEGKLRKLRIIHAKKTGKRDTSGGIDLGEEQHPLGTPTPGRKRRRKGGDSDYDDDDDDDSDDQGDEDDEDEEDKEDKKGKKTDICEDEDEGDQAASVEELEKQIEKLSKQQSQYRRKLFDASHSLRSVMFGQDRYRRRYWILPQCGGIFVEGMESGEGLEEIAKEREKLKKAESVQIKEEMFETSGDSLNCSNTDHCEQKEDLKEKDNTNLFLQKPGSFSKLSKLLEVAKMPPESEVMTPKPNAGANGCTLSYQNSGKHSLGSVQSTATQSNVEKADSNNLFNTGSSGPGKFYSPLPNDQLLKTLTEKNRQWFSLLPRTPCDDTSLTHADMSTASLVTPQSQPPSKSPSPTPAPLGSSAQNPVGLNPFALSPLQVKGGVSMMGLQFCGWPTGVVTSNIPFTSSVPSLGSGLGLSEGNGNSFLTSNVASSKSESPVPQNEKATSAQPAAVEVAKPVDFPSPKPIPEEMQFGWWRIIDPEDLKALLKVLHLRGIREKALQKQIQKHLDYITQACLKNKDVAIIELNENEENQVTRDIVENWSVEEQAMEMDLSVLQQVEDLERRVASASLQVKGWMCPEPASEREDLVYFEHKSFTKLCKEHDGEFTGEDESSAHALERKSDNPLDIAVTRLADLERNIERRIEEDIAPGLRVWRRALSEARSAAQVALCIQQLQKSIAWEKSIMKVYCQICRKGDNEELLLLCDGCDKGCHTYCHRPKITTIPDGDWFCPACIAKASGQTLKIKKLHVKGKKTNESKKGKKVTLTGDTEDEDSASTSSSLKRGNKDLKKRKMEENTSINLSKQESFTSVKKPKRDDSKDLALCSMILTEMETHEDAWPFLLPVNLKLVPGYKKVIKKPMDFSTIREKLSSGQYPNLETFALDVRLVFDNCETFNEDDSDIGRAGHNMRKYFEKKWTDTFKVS
Outline: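 AlphaScreen displacement of biotin-H3(5-23)K14Ac peptide (50 nM final) from BAZ2B (50 nM final) in PBS pH 7.4, 0.01% Tween-20; complex preformed 30 min RT, then compounds (top 110 uM) 30 min RT, beads 20 min dark.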
Note: nearly all actives have a fitted effect of over 60% in size.
Potency is the fitted concentration of half-maximal effect; tags give direction and shape of the fitted curve.

| Compound | Potency |
| --- | --- |
| O=C(Nc1ccc(N2CCCCC2)cc1)c1ccccn1 | inconclusive: 25.1 µM [inhibitor, full curve] |
| Cc1cc(C)nc(/N=C2\NC(=O)CC(C(=O)O)N2c2ccc(F)c(Cl)c2)n1 (stereo not drawn) | inactive |
| CC(C)n1cnc2c(=S)nc[nH]c21 | active: 50.1 µM |
| COc1ccccc1NC(=O)CSc1nnc(CC(=O)Nc2ccccc2F)n1C | inactive |
| CC(=O)C[C@H](O)CC(=O)[C@H]1OC(=O)CC/C=C\Cc2ccccc21 | inconclusive: 89.1 µM [inhibitor, single point] |
| COc1ccc2oc(C(=O)OCC(=O)N(C)c3ccccc3)c(C)c2c1 | inconclusive: 89.1 µM [inhibitor, single point] |
| CCN1CCN(c2ccc(S(=O)(=O)N3CCOCC3)cc2NC(=O)c2ccc(C)c(C)c2)CC1 | inactive |
| Brc1ccc(N/N=C(/N=Nc2nn[nH]n2)c2ccccc2)cc1 | active: 11.2 µM |
| CSc1cccc(NC(=O)c2cccc3cccnc23)c1 | inconclusive: 89.1 µM [inhibitor, single point] |
| CC/C(=C\c1oc2cc3ccccc3cc2[n+]1CC)Nc1ccccc1 | active: 79.4 µM |
| COc1ccc2ccccc2c1CNC(C)CCc1ccccc1 (stereo not drawn) | inactive |
| C=CCc1cc(C)ccc1OCCCn1ccnc1 | active: 31.6 µM |
| N#Cc1c(N)nc2c3c(sc(=N)c2c1N)NC(=O)CC3c1c(F)cccc1Cl (stereo not drawn) | inconclusive: 89.1 µM [inhibitor, single point] |
| N#C/C(C(=O)N1CCCCC1)=C1/N=C(NC(=O)c2ccc(F)cc2)c2ccccc21 | inconclusive: 89.1 µM [inhibitor, single point] |
| O=C(NC1CCSC1=O)c1cccc(C(=O)NC2CCSC2=O)c1 (stereo not drawn) | inconclusive: 89.1 µM [inhibitor, single point] |
| O=C(N/N=C/c1ccc(F)cc1)c1ccc(Br)cc1 | inconclusive: 89.1 µM [inhibitor, single point] |
| CN(C)c1ccc(P(=O)(Nc2cccc(C(F)(F)F)c2)N2CCOCC2)c(NC(=O)c2cccs2)c1 (stereo not drawn) | inconclusive: 56.2 µM [inhibitor, single point] |
| Cc1ccc(CNC(=O)C2CCCN2C(=O)Nc2ccc(C)cc2)cc1 (stereo not drawn) | inconclusive: 89.1 µM [inhibitor, single point] |
| Cc1nccn1CC(O)COC1CCCCC1 (stereo not drawn) | active: 31.6 µM |
| CCn1c(SC(C)C(=O)O)nc2sc3c(c2c1=O)CCC3 (stereo not drawn) | active: 50.1 µM |
| COc1cccc(C(C(=O)NC2CCCC2)N(C(=O)CNC(=O)c2ccco2)c2cccnc2)c1 (stereo not drawn) | inactive |
| Cc1ccc(S(=O)(=O)Nc2ccc(O)c3ncccc23)cc1 | active: 22.4 µM |
| COc1ccccc1CNC(=O)CCc1c(C)c2cc3c(C)c(C)oc3cc2oc1=O | inactive |
| C#CCOCCOCCOCCNc1nc(N2CCN(C(=O)CCCCCCCCCCNC(=O)[C@@H](CCSC)n3cc(CCO)nn3)CC2)nc(N2CCN(C(=O)CCCCCCCCCCNC(=O)[C@H](CCCN=C(N)N)n3cc(C[C@@H](C)CC)nn3)CC2)n1 | active: 50.1 µM |
| CC1(C)CC(=O)CC(=O)/C1=N\Nc1c(Cl)cc(Cl)cc1Cl | inconclusive: 39.8 µM [inhibitor, partial curve] |

| Compound | Potency |
| --- | --- |
| CN(C)CCCNC(=S)NCC(c1ccc(Cl)cc1Cl)c1c[nH]c2ccccc12 (stereo not drawn) | inconclusive: 56.2 µM [inhibitor, partial curve] |
| C/C(=N\NC(=S)NC(C)C)c1cccc([N+](=O)[O-])c1 | inconclusive: 44.7 µM [inhibitor, partial curve] |
| CC(=O)c1[nH]c(C)c(C(=O)N2CCCC(Nc3ccc(C(C)C)cc3)C2)c1C (stereo not drawn) | inconclusive: 79.4 µM [inhibitor, single point] |
| NC(=O)NC(=O)CC1S/C(=N/N=C2\CSC(=O)N2)NC1=O (stereo not drawn) | active: 3.16 µM |
| COc1cccc(CNS(=O)(=O)c2cnc(N)nc2)c1 | inactive |
| CCOc1ccc(/C=N/n2nnnc2N)cc1O | inconclusive: 89.1 µM [inhibitor, single point] |
| Cc1ccc(C)c(S(=O)(=O)N2CCN(Cc3cc4c(cc3O)OCO4)CC2)c1 | active: 39.8 µM |
| Cc1ccc(-n2c(C)cc(C(=O)OCC(=O)N(CC(C)C)C3CCS(=O)(=O)C3)c2C)cc1 (stereo not drawn) | inconclusive: 56.2 µM [inhibitor, partial curve] |
| CCOc1ccccc1NC(=S)N1CCN(c2cccc(OC)c2)CC1 | inconclusive: 79.4 µM [inhibitor, single point] |
| COc1ccccc1C(=O)Oc1cc(N)n(S(=O)(=O)c2ccc(C)cc2)n1 | inconclusive: 79.4 µM [inhibitor, single point] |
| Cc1ccnc(SCc2cc(=O)c(OC(=O)c3ccc(Cl)c([N+](=O)[O-])c3)co2)n1 | inconclusive: 79.4 µM [inhibitor, single point] |
| CC(NCc1ccc(F)cc1)C(=O)NC1CCCCC1 (stereo not drawn) | inactive |
| COc1ccc(C(=O)/C=C/c2cn(CC(O)CN3CCc4ccccc43)c3ccccc23)cc1OC (stereo not drawn) | active: 10 µM |
| CCOc1ccccc1CN(Cc1ccco1)S(=O)(=O)c1ccc(-n2cnnn2)c(OC)c1 | inactive |
| Cc1ccc(CS(=O)(=O)Cc2ccc(C(=O)NCc3cccnc3)o2)cc1 | inconclusive: 100 µM [inhibitor, single point] |
| CCc1cccc(NC(=O)c2ccc(Cn3c(=O)[nH]c4ccsc4c3=O)cc2)c1 | inconclusive: 89.1 µM [inhibitor, single point] |
| COc1ccc(S(=O)(=O)N2CCC(C(=O)Nc3ccccc3C)CC2)c2cccnc12 | inconclusive: 79.4 µM [inhibitor, single point] |
| C#CCOCCOCCOCCNc1nc(N2CCN(C(=O)C(Cc3ccc(O)cc3)n3cc(C(N)CC(C)C)nn3)CC2)nc(N2CCN(C(=O)C(Cc3cc4ccccc4[nH]3)n3cc(C(N)Cc4ccc(O)cc4)nn3)CC2)n1 (stereo not drawn) | active: 35.5 µM |
| CC(C)N(Cc1nccn1C)C(=O)CCc1nnc(CCCc2ccccc2)o1 | inactive |
| C=CCn1c(SCc2cc(=O)n3ccsc3n2)nc2ccccc2c1=O | inconclusive: 89.1 µM [inhibitor, single point] |
| CCOC(=O)C1=C(C)N=C2SCCC(=O)N2C1c1ccc(OC)cc1 (stereo not drawn) | inactive |
| CC1=CC(C)(C)NC(=S)N1c1cc(C)cc(C)c1 | inactive |
| Cn1c(CN2CCCC2)nc2cc(NC(=O)c3cccs3)ccc21 | inconclusive: 89.1 µM [inhibitor, single point] |
| CCn1cc(C(=O)O)c(=O)c2cc(F)c(N3CCN(C(=S)NC(=O)c4ccccc4C)CC3)cc21 | inconclusive: 79.4 µM [inhibitor, single point] |
| CCOc1ccc(-c2cc3nc(C4CCN(C(=O)OC(C)(C)C)CC4)c(C(=O)Nc4cc(OC)ccc4OC)cn3n2)cc1 | inconclusive: 22.4 µM [inhibitor, full curve] |

| Compound | Potency |
| --- | --- |
| Cc1ccc(-n2nc(-c3ccco3)cc2C(=O)O)cc1 | active: 79.4 µM |
| Oc1ccc2ccccc2c1N=Nc1ccc(F)cc1 | active: 3.98 µM and active: 2.24 µM |
| COCc1c(C(=O)OCc2nc(N)nc(Nc3ccccc3C)n2)oc2ccccc12 | inconclusive: 89.1 µM [inhibitor, single point] |
| Cc1ccc(/C=N/NC(=O)C(=O)N/N=C/c2ccc(C)o2)o1 | inactive |
| Cc1nn(C)c2c1c(-c1ccccc1)cc(=O)n2CC(=O)NC(C)c1ccccc1 (stereo not drawn) | active: 50.1 µM |
| COC(=O)CC1C(=O)NCCN1C(=S)NC(=O)c1sc2ccccc2c1Cl (stereo not drawn) | inconclusive: 56.2 µM [inhibitor, partial curve] |
| Cn1c(N)c(C(=O)/C=C/c2ccccc2)c(=O)[nH]c1=O | inactive |
| CCn1c(CCCc2ccc(OC)c(C)c2)n[nH]c1=S | inactive |
| CCCCOc1ccc(-c2nc(/C=N/c3nccs3)c(O)o2)cc1 | inactive |
| CC1CCN(c2nn3c(=O)c(C(=O)NC(C)C)cnc3s2)CC1 | inactive |
| O=C(O)c1cccc(-c2ccc(/C=N/Nc3ccc([N+](=O)[O-])cc3)o2)c1 | active: 44.7 µM |
| O=C(O)c1ccccc1-n1ncc2c1/C(=C/c1ccc(Cl)cc1)CC2 | inconclusive: 79.4 µM [inhibitor, partial curve] |
| COc1ccccc1CNC(=O)Cn1c(=O)c2cccn2c2cccnc21 | inactive |
| COc1ccc(CNCc2ccc3ccccc3c2)c(OC)c1 | inconclusive: 50.1 µM [inhibitor, partial curve] |
| CC(Sc1nnc2ccccn12)C(=O)Nc1ccc2c(c1)OCO2 (stereo not drawn) | inactive |
| S=C1NCN(Cc2cccnc2)CN1 | inactive |
| O=C(O)CCc1ccc(-c2ccccc2)n1Cc1ccco1 | active: 50.1 µM |
| COc1ccc(Nc2oc(COc3ccccc3F)nc2C#N)cc1 | inconclusive: 50.1 µM [inhibitor, partial curve] |
| O=C(Cn1c(=O)n(-c2ccccc2)c(=O)c2c3c(sc21)CCCC3)Nc1ccc(F)cc1F | inconclusive: 17.8 µM [inhibitor, partial curve, poor fit] |
| N#Cc1nc(-c2ccc(COc3ccc(Cl)cc3)o2)oc1N1CCC(C(N)=O)CC1 | inconclusive: 7.08 µM [inhibitor, full curve] |
| COc1ccc(OC)c(C2=NS(=O)(=O)N(C)C(C(=O)Nc3ccc(F)cc3F)=C2)c1 | inconclusive: 39.8 µM [inhibitor, partial curve] |
| O=C(Nc1cccc(C(F)(F)F)c1)c1cccnc1N1CCN(c2ccccc2)CC1 | active: 50.1 µM |
| CSc1cc(-c2ccc(Cl)cc2)c(C(=O)NC(C)C)s1 | inactive |
